# Test results taken from the supplement of paper PMC8728848.
# This is one part of the list.
# Key:
# Assay in all cases: glycan array binding signal (z-score within array); higher = stronger binding
# Settings in all cases: glycan notation: IUPAC condensed, linker removed
# [1] = molecular target: Man(a1-2)Man(a1-3)[Man(a1-2)Man(a1-6)]Man
# Summary of the method: (§1)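 The Consortium for Functional Glycomics database supplied 3228 glycan arrays, of which those lacking an available protein sequence were dropped. The binding signal, a within-array Z-score, was averaged across arrays of the same protein sequence and across linkers. Negative scores can be read as non-binding.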
# [2] = molecular target: Man(a1-2)Man(a1-3)[Man(a1-2)Man(a1-6)]Man(a1-6)[Man(a1-2)Man(a1-2)Man(a1-3)]Man
# Summary of the method: as §1
# [3] = molecular target: Man(a1-2)Man(a1-3)[Man(a1-2)Man(a1-6)]Man(a1-6)[Man(a1-2)Man(a1-2)Man(a1-3)]Man(b1-4)GlcNAc(b1-4)GlcNAc
# Summary of the method: as §1
# [4] = molecular target: Man(a1-2)Man(a1-3)[Man(a1-6)]Man(a1-6)[Man(a1-2)Man(a1-3)]Man(b1-4)GlcNAc(b1-4)GlcNAc
# Summary of the method: as §1
# [5] = molecular target: Man(a1-2)Man(a1-6)[Man(a1-3)]Man(a1-6)[Man(a1-2)Man(a1-2)Man(a1-3)]Man
# Summary of the method: as §1
# [6] = molecular target: Man(a1-2)Man(a1-6)[Man(a1-3)]Man(a1-6)[Man(a1-2)Man(a1-2)Man(a1-3)]Man(b1-4)GlcNAc(b1-4)GlcNAc
# Summary of the method: as §1
# Man(a1-3)[Man(a1-6)]Man = molecular target: Man(a1-3)[Man(a1-6)]Man
# Summary of the method: as §1
# [7] = molecular target: Man(a1-3)[Man(a1-6)]Man(a1-6)[Man(a1-2)Man(a1-3)]Man(b1-4)GlcNAc(b1-4)GlcNAc
# Summary of the method: as §1
# [8] = molecular target: Man(a1-3)[Man(a1-6)]Man(a1-6)[Man(a1-3)]Man
# Summary of the method: as §1
# [9] = molecular target: Man(a1-3)[Man(a1-6)]Man(a1-6)[Man(a1-3)]Man(b1-4)GlcNAc(b1-4)GlcNAc
# Summary of the method: as §1
# [10] = molecular target: Man(a1-3)[Man(a1-6)]Man(b1-4)GlcNAc(b1-4)GlcNAc
# Summary of the method: as §1
# [11] = molecular target: Man(a1-3)[Man(a1-6)]Man(b1-4)GlcNAc(b1-4)[Fuc(a1-6)]GlcNAc
# Summary of the method: as §1
# Man(a1-6)Man = molecular target: Man(a1-6)Man
# Summary of the method: as §1
# Man(b1-4)GlcNAc = molecular target: Man(b1-4)GlcNAc
# Summary of the method: as §1
# MurNAc(b1-4)GlcNAc = molecular target: MurNAc(b1-4)GlcNAc
# Summary of the method: as §1
# Neu5Ac(a2-3)Gal = molecular target: Neu5Ac(a2-3)Gal
# Summary of the method: as §1
# [12] = molecular target: Neu5Ac(a2-3)Gal(b1-3)GalNAc
# Summary of the method: as §1
# [13] = molecular target: Neu5Ac(a2-3)Gal(b1-3)GalNAc(b1-3)Gal(a1-4)Gal(b1-4)Glc
# Summary of the method: as §1
# [14] = molecular target: Neu5Ac(a2-3)Gal(b1-3)GalNAc(b1-4)[Neu5Ac(a2-3)]Gal(b1-4)Glc
# Summary of the method: as §1
# [15] = molecular target: Neu5Ac(a2-3)Gal(b1-3)GalNAc(b1-4)[Neu5Ac(a2-8)Neu5Ac(a2-3)]Gal(b1-4)Glc
# Summary of the method: as §1
# [16] = molecular target: Neu5Ac(a2-3)Gal(b1-3)GalNAc6S
# Summary of the method: as §1
# [17] = molecular target: Neu5Ac(a2-3)Gal(b1-3)GlcNAc
# Summary of the method: as §1
# [18] = molecular target: Neu5Ac(a2-3)Gal(b1-3)GlcNAc(b1-2)Man
# Summary of the method: as §1
# [19] = molecular target: Neu5Ac(a2-3)Gal(b1-3)GlcNAc(b1-2)Man(a1-3)[GlcNAc(b1-4)][Neu5Ac(a2-3)Gal(b1-3)GlcNAc(b1-2)Man(a1-6)]Man(b1-4)GlcNAc(b1-4)GlcNAc
# Summary of the method: as §1
# [20] = molecular target: Neu5Ac(a2-3)Gal(b1-3)GlcNAc(b1-2)Man(a1-3)[Neu5Ac(a2-3)Gal(b1-3)GlcNAc(b1-2)Man(a1-6)]Man(b1-4)GlcNAc(b1-4)GlcNAc
# Summary of the method: as §1
# [21] = molecular target: Neu5Ac(a2-3)Gal(b1-3)GlcNAc(b1-2)[Neu5Ac(a2-3)Gal(b1-3)GlcNAc(b1-4)]Man(a1-6)[Neu5Ac(a2-3)Gal(b1-3)GlcNAc(b1-2)Man(a1-3)]Man(b1-4)GlcNAc(b1-4)GlcNAc
# Summary of the method: as §1
# [22] = molecular target: Neu5Ac(a2-3)Gal(b1-3)GlcNAc(b1-3)Gal(b1-3)GlcNAc
# Summary of the method: as §1
# [23] = molecular target: Neu5Ac(a2-3)Gal(b1-3)GlcNAc(b1-3)Gal(b1-4)GlcNAc
# Summary of the method: as §1
# [24] = molecular target: Neu5Ac(a2-3)Gal(b1-3)GlcNAc(b1-3)GalNAc
# Summary of the method: as §1
# [25] = molecular target: Neu5Ac(a2-3)Gal(b1-3)GlcNAc(b1-4)Gal(b1-4)Glc
# Summary of the method: as §1
binder,measurement,setting,value
"CC1G-10077 (Coprinopsis cinerea), A8NDT7 (protein) MALNEGVYWIRNSRFTNKVLDLDAANVAKGTSILDFNEHGTFNENHNQLWIVERFQSRDTYLIRSVHSNLVLDLSQGLSANGTPILCWTQHGGTNQQWRIEWVKDDNKTPLYRIVSVATGTAISHNEDDSSAYTVAWSVDDGPKQLWSFDPFVTPLLYRLRVKSTSRVLDLAAASADNGTLALAWEQHTAITKRNQLWWLPYRSGAEEYTIQCLETSTVADLSGGNSGNGTPIYGWQSHGGRNQQWKFEPTSDSGDYYHIKNVEGGSVMDAYMNDSQKRVGGWSNNGGDNQKWLLDPLPSPGPGWVLIQNGGTGKFLCSTPSGDIGTADGPETVYDYSVQWRFIQREYTGVYHVVNRATGAYLRQIGTSMPSIGLAEENDDELKDWWMLETYDNSEIGLASIISRWTGNVLDHYGGVSVQALDNNTENSYRSWAIIPARDWLTSFSLVNGQGGLCLAAQYAREETRLSTTANVNDFHAQWVFRKPSGSSGYTIQNKYNNHYVGGTSARWELVVCCNKYFGIRNTSTQKYLAIEDGQVTFQDQDMTDRKQCWELCSGRATDTSGNDYDLIYMDDDLLEVMIPWVGDKQGDLKHYIEKRATKKPPKDKGGWQLPAAGLIKKPKFNDIRQLLQELIEQWEWDVVNEEREQIQTLVSIDEAEARRLLGRRPHPDIVAAYQRSRSSTLFRIDRQGYFNIAGDRYVNIQGQYGDDSYFHIALPVGVRFGREQIRRFLRDSLDRSTSVTITPTTCKPPSGGPDYNRDPDSDGDNSWIKWTIAVVGTSAIKHSEL",glycan array binding signal (z-score),[1],-0.462
same,glycan array binding signal (z-score),[2],-0.43
same,glycan array binding signal (z-score),[3],-0.463
same,glycan array binding signal (z-score),[4],-0.432
same,glycan array binding signal (z-score),[5],-0.508
same,glycan array binding signal (z-score),[6],-0.421
same,glycan array binding signal (z-score),Man(a1-3)[Man(a1-6)]Man,-0.431
same,glycan array binding signal (z-score),[7],-0.358
same,glycan array binding signal (z-score),[8],-0.484
same,glycan array binding signal (z-score),[9],-0.462
same,glycan array binding signal (z-score),[10],-0.429
same,glycan array binding signal (z-score),[11],-0.371
same,glycan array binding signal (z-score),Man(a1-6)Man,-0.432
same,glycan array binding signal (z-score),Man(b1-4)GlcNAc,-0.396
same,glycan array binding signal (z-score),MurNAc(b1-4)GlcNAc,-0.458
same,glycan array binding signal (z-score),Neu5Ac(a2-3)Gal,-0.51
same,glycan array binding signal (z-score),[12],-0.471
same,glycan array binding signal (z-score),[13],-0.454
same,glycan array binding signal (z-score),[14],-0.46
same,glycan array binding signal (z-score),[15],-0.495
same,glycan array binding signal (z-score),[16],-0.429
same,glycan array binding signal (z-score),[17],-0.452
same,glycan array binding signal (z-score),[18],-0.539
same,glycan array binding signal (z-score),[19],-0.439
same,glycan array binding signal (z-score),[20],-0.387
same,glycan array binding signal (z-score),[21],-0.346
same,glycan array binding signal (z-score),[22],-0.514
same,glycan array binding signal (z-score),[23],-0.476
same,glycan array binding signal (z-score),[24],-0.447
same,glycan array binding signal (z-score),[25],-0.431
